Some of the results follow.
What follows are compounds tested on S. aureus RN4220 (assay: growth inhibition call (relative growth <= 0.2)). Conditions: 50 µM.
For `Cc1ccc(S(=O)(=O)Nc2ccc3c(c2)CC(=O)N([C@H](C)CO)C[C@H](C)[C@H](CN(C)Cc2ccc(C(F)(F)F)cc2)O3)cc1`, the growth inhibition call was “inactive”.
`C[C@@H]1CN([C@H](C)CO)C(=O)c2cc(NC(=O)CCC(F)(F)F)ccc2O[C@@H](C)CCCCO[C@H]1CN(C)C(=O)c1ccccc1` was tested, and the growth inhibition call was “inactive”.
`CN(CC(=O)NC1CCCCC1)S(C)(=O)=O` was tested, and the growth inhibition call was “inactive”.
`O=C(C[C@H]1CC[C@@H]2[C@H](COC[C@H](O)CN2C(=O)c2ccncc2)O1)NC1CCC1` was tested, and the growth inhibition call was “inactive”.
For `CCOC(=O)Cc1c(C)[nH]c(SC)nc1=O`, the growth inhibition call was “inactive”.
`COCCC(=O)N1CC[C@]2(CCOC2)C1` was tested, and the growth inhibition call was “inactive”.
With `CC(=O)N(C)C[C@@H]1Oc2cc(C#CCN(C)C)ccc2S(=O)(=O)N([C@@H](C)CO)C[C@@H]1C` the growth inhibition call was “inactive”.
In the case of `S=C1NCN(CCc2ccccc2)CN1`, the growth inhibition call is reported as “inactive”.
For `C[C@@H]1CCCCO[C@@H](CN(C)Cc2ccncc2)[C@H](C)CN([C@H](C)CO)C(=O)c2cc(NC(=O)CCC(F)(F)F)ccc2O1`, the growth inhibition call was “inactive”.
In the case of `COc1ccc(NC(=O)N(C)C[C@H]2OCCCC[C@@H](C)Oc3ccc(NC(=O)c4ccncc4)cc3C(=O)N([C@H](C)CO)C[C@@H]2C)cc1`, the growth inhibition call is reported as “inactive”.
With `C[C@H]1CN([C@@H](C)CO)C(=O)Cc2cc(NC(=O)CCC(F)(F)F)ccc2O[C@@H]1CN(C)Cc1ccc(-c2ccccc2)cc1` the growth inhibition call was “inactive”.
With `OC[C@H]1O[C@H](O)[C@H](O)[C@@H](O)[C@@H]1O` the growth inhibition call was “inactive”.
With `C[C@H]1CN([C@@H](C)CO)C(=O)CCCn2cc(nn2)CO[C@H]1CN(C)S(=O)(=O)c1ccc(Cl)cc1` the growth inhibition call was “inactive”.
In the case of `COc1ccccc1CNC(=O)C[C@H]1CC[C@@H]2[C@H](COC[C@@H](O)CN2C(=O)Nc2ccc(F)cc2)O1`, the growth inhibition call is reported as “inactive”.
For `C[C@H]1CN([C@@H](C)CO)C(=O)c2cccc(NC(=O)c3ccc(-c4nccs4)cc3)c2O[C@@H]1CN(C)C(=O)Nc1ccccc1`, the growth inhibition call was “inactive”.
For `Cc1noc(C)c1NC(=O)N(C)C[C@@H]1OCCCC[C@@H](C)Oc2ccc(NS(=O)(=O)c3cccs3)cc2C(=O)N([C@H](C)CO)C[C@@H]1C`, the growth inhibition call was “inactive”.
In the case of `CCS(=O)(=O)NCC[C@@H]1CC[C@@H](NC(=O)Cc2ccccn2)[C@H](CO)O1`, the growth inhibition call is reported as “inactive”.
For `C[C@H](CO)N1C[C@H](C)[C@H](CN(C)C(=O)C2CCCCC2)OCCCC[C@H](C)Oc2ccc(NC(=O)Nc3ccc4c(c3)OCO4)cc2C1=O`, the growth inhibition call was “inactive”.
`CN[C@H](CC(=O)O)C(=O)O` was tested, and the growth inhibition call was “inactive”.
With `Cl.Fc1ccc(C2CCNCC2COc2ccc3c(c2)OCO3)cc1` (centres undefined) the growth inhibition call was “inactive”.
In the case of `CSC1=NCCN1`, the growth inhibition call is reported as “inactive”.
With `O=C(O)CCCN=C1NC(=O)CC(=O)N1` the growth inhibition call was “inactive”.
For `Cc1ccc(CSc2ncc(C(F)(F)F)cc2Cl)cc1`, the growth inhibition call was “inactive”.
`CO[C@@H]1CN(C)C(=O)c2cc(NC(=O)C3CCOCC3)ccc2OC[C@@H](C)N(C(=O)Nc2ccc(C(F)(F)F)cc2)C[C@H]1C` was tested, and the growth inhibition call was “active”.
For `CC(C)NC(=O)N(C)C[C@H]1Oc2c(NC(=O)NC3CCCCC3)cccc2C(=O)N([C@@H](C)CO)C[C@H]1C`, the growth inhibition call was “inactive”.
`Cc1noc(C)c1S(=O)(=O)N(C)C[C@H]1Oc2ccc(NS(=O)(=O)c3cn(C)cn3)cc2CC(=O)N([C@@H](C)CO)C[C@@H]1C` was tested, and the growth inhibition call was “inactive”.
With `C[C@H](NC(=O)C[C@@H]1C[C@H]2c3cc(NC(=O)Nc4ccc(C(F)(F)F)cc4)ccc3O[C@H]2[C@H](CO)O1)c1ccccc1` the growth inhibition call was “inactive”.
With `CS(=O)(=O)N1C[C@H]2COC[C@@]2(C(=O)NCc2ccccn2)C1` the growth inhibition call was “inactive”.
For `Cn1cnc(S(=O)(=O)N2C[C@H](O)COC[C@@H]3O[C@H](CC(=O)NCc4cccc(F)c4)CC[C@H]32)c1`, the growth inhibition call was “inactive”.
`Cc1noc(C)c1NC(=O)Nc1ccc2c(c1)C(=O)N([C@@H](C)CO)C[C@@H](C)[C@@H](CN(C)S(=O)(=O)c1ccccc1)O2` was tested, and the growth inhibition call was “inactive”.
With `COCC#Cc1ccc([C@H]2[C@@H](CO)N3C(=O)CN(C(=O)c4cccnc4)C[C@@H]23)cc1` the growth inhibition call was “inactive”.
`C[C@@H]1CN([C@@H](C)CO)C(=O)c2cc(NC(=O)CCN3CCOCC3)ccc2O[C@H]1CN(C)Cc1ccncc1` was tested, and the growth inhibition call was “inactive”.
With `C[C@H](CO)N1C[C@H](C)[C@@H](CN(C)C(=O)Cc2ccncc2)Oc2cc(C3=CCCC3)ccc2S1(=O)=O` the growth inhibition call was “inactive”.
For `C[C@H](CO)N1C[C@H](C)[C@@H](CN(C)C(=O)Nc2ccc(F)cc2)Oc2ccc(NC(=O)CCCCCC(=O)Nc3ccccc3N)cc2C1=O`, the growth inhibition call was “inactive”.
With `C[C@H](CO)N1C[C@H](C)[C@@H](CN(C)C(=O)c2ccc3c(c2)OCO3)Oc2ncc(C#Cc3ccccc3F)cc2C1=O` the growth inhibition call was “inactive”.
In the case of `C[C@H]1CN([C@@H](C)CO)C(=O)CCCn2cc(nn2)CO[C@@H]1CN(C)C(=O)Nc1ccc(C(C)(C)C)cc1`, the growth inhibition call is reported as “inactive”.
For `C[C@@H]1CCCCO[C@H](CN(C)S(=O)(=O)c2cn(C)cn2)[C@H](C)CN([C@@H](C)CO)C(=O)c2cc(NC(=O)CCCN(C)C)ccc2O1`, the growth inhibition call was “inactive”.
With `C[C@H](CO)N1C[C@H](C)[C@@H](CN(C)Cc2ccncc2)Oc2ccc(NS(=O)(=O)c3ccc(F)cc3)cc2C1=O` the growth inhibition call was “inactive”.
For `C(=C\c1ccccc1)/CSc1ncnc2c1oc1ccccc12`, the growth inhibition call was “inactive”.
